PubChem BioAssay AID662 (National Center for Advancing Translational Sciences (NCATS), 2007)
Screen size: about 71,000 compounds; about 1,800 (2.5%) were called active. This list was built around the results that the source calls inconclusive (neither active nor inactive); the mix of calls is not that of the screen. The call rests on the fitted dose curve; in most records, active means well fitted activation curve with a large enough effect in the signal ratio, with a control signal flat (not every such curve was filed as active); inconclusive means small, poorly fitted or top-dose-only effect, or effect the other way, or a change in a side signal; inactive means flat fitted curve, though single readings scatter; the % refers to the signal ratio. Potencies of inconclusive entries are doubtful fits and often do not repeat.

Experiment: Cell signaling CRE-BLA (Fsk stim); on activity change, negative = inhibition: % of control where 0% means no effect
Conditions: CHO CRE-bla reporter (cAMP response element driving beta-lactamase), forskolin EC10, beta-lactamase ratio
In short: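 CHO CRE-bla cells, overnight plating in Opti-MEM with 0.5% dialyzed FBS; cpd titration + EC10 NKH 477, 3 h 37 °C; CCF4 2 h RT; ex 405/em 460 vs 530 ratio → %Activity, AC50.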

[1] = activity change, negative = inhibition: at 38.2 µM (top of the series) unless noted
Potency means the concentration at half of the fitted maximal effect; tags describe the fitted curve by direction and shape.

## O=C(O)CNC(=O)c1ccc([As](=O)(O)O)cc1
[1]
  activity change, negative = inhibition: inactive: 20.9% [at 7.6 µM]

## S=P(C1CCCCC1)(C1CCCCC1)[C@H](c1cccnc1)N1CCCC1
[1]
  activity change, negative = inhibition: inactive: 3.64% [at 7.6 µM]

## CC(=O)/C=C/c1ccccc1
[1]
  activity change, negative = inhibition: inactive

## COC(C)(C)CCCC(C)C/C=C/C(C)=C/C(=O)OC(C)C (centres undefined)
[1]
  activity change, negative = inhibition: inactive

## COc1ccc(CCn2c(O)c(C=NC3CC3)c(=O)[nH]c2=O)cc1OC
[1]
  Potency: inconclusive: 15.8 µM [rising, partial curve, poor fit]

## C=C(C)[C@H]1[C@H]2OC(=O)[C@@H]1[C@]1(O)C[C@H]3O[C@]34C(=O)O[C@H]2[C@@]14C
[1]
  activity change, negative = inhibition: inactive

## C[C@]12CC[C@@H]3[C@H](CCC4=CC(=O)CC[C@]43C)[C@]1(O)CC[C@@]2(O)C(=O)CO
[1]
  activity change, negative = inhibition: inconclusive: 15.2% [at 7.6 µM]

## CCC12CN3CCN(CC(C3)/C1=N\O)C2
[1]
  activity change, negative = inhibition: inconclusive: -9.76% [at 7.6 µM]

## Cc1ccc2nc3c(cc2c1)CC1(C(=O)N(C)C(=O)N(C)C1=O)C1CCCCN31 (centres undefined)
[1]
  Potency: inconclusive: 20 µM [falling, single point]

## CC1=CC(=C2C(=O)NC(=O)NC2=O)C=C(C(F)(F)F)N1C(C)C
[1]
  Potency: inconclusive: 12.6 µM [rising, single point]

## CCOC(=O)c1c(N)n(CCCOC(=O)c2ccco2)c2nc3ccccc3nc12
[1]
  Potency: active: 10 µM

## CCn1c(=O)cc(SCC(=O)N2CCC3(CC2)OCCO3)c2ccccc21
[1]
  activity change, negative = inhibition: inconclusive: 21.8%

## Cc1ccc(Cn2nnnc2CN2CCC(n3nnc4cc(C)ccc43)CC2)cc1
[1]
  activity change, negative = inhibition: inconclusive: 18.4%

## CC1(C)C(c2ccccc2)=NC(c2cccnc2)N1O (centres undefined)
[1]
  activity change, negative = inhibition: inactive

## CCC(=O)OC1(c2cccc(C)c2)CC(C)N(C)CC1C (centres undefined)
[1]
  Potency: inconclusive: 0.1 µM [falling, single point]

## C[C@H]1C[C@@H](C)C(=O)[C@@H]([C@H](O)CC2CC(=O)NC(=O)C2)C1
[1]
  Potency: inconclusive: 0.01 µM [rising, full curve, poor fit]

## COc1cc2c(C(=O)N3CCN(C)CC3)c(C)n(C)c2cc1Br
[1]
  activity change, negative = inhibition: inactive

## COC(=O)/C=C\C(=O)N[C@@H]1CC[C@@]2(O)[C@H]3Cc4ccc(O)c5c4[C@@]2(CCN3CC2CC2)[C@@H]1O5
[1]
  activity change, negative = inhibition: inconclusive: -24.9%

## CCOC(=O)c1c(C)c(P(=S)(N2CCOCC2)N2CCOCC2)n(C)c1C
[1]
  activity change, negative = inhibition: inactive

## [Cd+2].[Cl-].[Cl-]
[1]
  Potency: inconclusive: 0.251 µM [rising, full curve]

## CC(=O)c1c(C)n(CCCOC(C)C)c2ccc(O)cc12
[1]
  activity change, negative = inhibition: inconclusive: -10%

## CCC1(CC)C(=O)NC(=Nc2cccc(C(F)(F)F)c2)NC1=O
[1]
  activity change, negative = inhibition: inactive

## Nc1ccncc1
[1]
  activity change, negative = inhibition: inconclusive: -6.06%

## CN(C)Cc1c[nH]c2ccccc12
[1]
  activity change, negative = inhibition: inactive

## c1nc[nH]n1
[1]
  activity change, negative = inhibition: inactive

## Cc1ccc(CS(=O)(=O)Cc2ccc(C(=O)N3CCC4(CC3)OCCO4)o2)cc1
[1]
  activity change, negative = inhibition: inconclusive: 4.4%

## BrC(Br)Br
[1]
  activity change, negative = inhibition: inactive

## CCCCn1c(O)c(C=NCCCn2ccnc2)c(=O)[nH]c1=O
[1]
  activity change, negative = inhibition: inconclusive: -18.7%

## O=c1c2cc(Cl)cc(Cl)c2nc(CN2CCOCC2)n1-c1ccccc1F
[1]
  Potency: inconclusive: 12.6 µM [rising, partial curve]

## NS(=O)(=O)c1ccc(N=Cc2c(O)n(C3CCCCC3)c(=O)n(C3CCCCC3)c2=O)cc1
[1]
  activity change, negative = inhibition: inconclusive: -15.3%

## Cl.Cl.Cl.Cl.Cl.Cl.N.N.N.N.NNNNN.NNNNN.O.O.[Ru].[Ru].[Ru]
[1]
  activity change, negative = inhibition: inconclusive: 6.01%

## C[N+]1(C)CCc2cc3c(cc2[C@@H]1[C@@H]1OC(=O)c2c1ccc1c2OCO1)OCO3
[1]
  activity change, negative = inhibition: inactive

## COC1=C(C)C(=O)c2c(c(COC(N)=O)c3n2C[C@@H]2[C@@H]3N2C)C1=O (some centres undefined)
[1]
  Potency: active: 0.2 µM

## N[C@H](C(=O)O)c1cc(=O)[nH]o1
[1]
  activity change, negative = inhibition: inconclusive: -10.6%

## CC[C@@H](CO)NC(=O)[C@H]1C=C2c3cccc4[nH]cc(c34)C[C@H]2N(C)C1
[1]
  activity change, negative = inhibition: inactive

## COc1ccc(CC[n+]2cc(/N=C(\C)[O-])on2)cc1OC
[1]
  activity change, negative = inhibition: inactive

## Cn1c(O)c(C(=NCCN2CCCCC2)c2ccccc2Cl)c(=O)n(C)c1=O
[1]
  activity change, negative = inhibition: inconclusive: 26.8%

## Cc1[nH]c2ccc(O)cc2c1CCN
[1]
  activity change, negative = inhibition: inconclusive: -19.3%

## O=C(c1ccncc1)N1CCC[C@@]2(CCN(Cc3nccs3)C2)C1
[1]
  activity change, negative = inhibition: inactive

## C#CCO
[1]
  activity change, negative = inhibition: inactive

## CCCCn1c(=O)c(C(=O)Nc2nc3ccccc3[nH]2)c(O)c2ccccc21
[1]
  activity change, negative = inhibition: inactive

## C=CCN1CC[C@]23c4c5ccc(O)c4O[C@@H]2/C(=N/NC(=O)c2ccccc2)CC[C@@]3(O)[C@H]1C5
[1]
  activity change, negative = inhibition: inactive

## CC(C)CCNC(=O)c1c(N)n(CC2CCCO2)c2nc3ccccc3nc12 (centres undefined)
[1]
  activity change, negative = inhibition: inconclusive: -23.1%

## C=CC(=O)OCC(C)C
[1]
  activity change, negative = inhibition: inactive

## [CH3][Hg][Cl]
[1]
  Potency: inconclusive: 31.6 µM [falling, single point]

## Clc1ccc2c(N3CCNCC3)ccnc2c1
[1]
  activity change, negative = inhibition: inconclusive: 1.63%

## O=C(O)CCCc1ccc(N(CCCl)CCCl)cc1
[1]
  activity change, negative = inhibition: inconclusive: 21.7%
At 17.1 µM (top of the series)
  activity change, negative = inhibition: inactive: 1.72%
At 38.2 µM (top of the series)
  activity change, negative = inhibition: inactive: 4%

## COc1ccc(Cn2c(N)c(C(=O)NCc3ccco3)c3nc4ccccc4nc32)cc1
[1]
  Potency: inconclusive: 15.8 µM [rising, single point]

## CN1C(=O)CCS(=O)(=O)[C@H]1c1ccc(Cl)cc1
[1]
  activity change, negative = inhibition: inconclusive: -8.51%

## Cn1c(O)c(/C=N/c2ccccn2)c(=O)n(C)c1=O
[1]
  activity change, negative = inhibition: inconclusive: 1.63%

## ClC1=C(Cl)C2(Cl)C3C(Cl)C=CC3C1(Cl)C2(Cl)Cl (centres undefined)
[1]
  activity change, negative = inhibition: inconclusive: 17.3%

## CC(=NCc1ccco1)c1c(O)n(C)c(=O)n(C)c1=O
[1]
  Potency: inconclusive: 12.6 µM [rising, single point]

## Cc1c(C(=O)N2CCC3(CC2)OCCO3)oc2ccccc12
[1]
  activity change, negative = inhibition: inactive

## COc1ccc2[nH]c3c(c2c1)CCN=C3C
[1]
  activity change, negative = inhibition: inactive

## O=C(O)C(Cl)Br (centres undefined)
[1]
  activity change, negative = inhibition: inactive

## CN1CCC(c2c[nH]c3ccc(O)cc23)CC1
[1]
  activity change, negative = inhibition: inconclusive: -18.9%

## CC(C)CC(NC(=O)C1CCCCC1)C(=O)N1CCC2(CC1)OCCO2 (centres undefined)
[1]
  Potency: inconclusive: 0.2 µM [rising, full curve, poor fit]
